# According to PubChem BioAssay AID504332 (National Center for Advancing Translational Sciences (NCATS), 2011):
# Hit rate of the full screen: of about 350,000 compounds, about 31,000 (8.9%) were called active. The shares of active, inactive and inconclusive entries below differ from those in the screen. Calls follow the shape of the dose curve; as a rule, active = well fitted inhibition curve with a large enough effect; inconclusive = small, poorly fitted or top-dose-only effect; inactive = no such curve, though single readings can be large or run the other way. A potency beside an inconclusive call is a rough fit, not a confirmed value.
# Biological target: Histone-lysine N-methyltransferase EHMT2 (Homo sapiens) (UniProt Q96KQ7)
# Assay: qHTS Assay for Inhibitors of Histone Lysine Methyltransferase G9a; also: nearly all actives have a fitted effect of over 75% in size
# Details: G9a H3K9 monomethylation, AlphaScreen, 2 h; activity, negative = inhibition: at 59 µM (top of the series) unless noted
# Outline: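 Readings reflect AlphaScreen signal from monomethyl-H3K9 antibody detection. HMT at 20 nM; substrate b-H3K9 500 nM; cofactor SAM 20 uM; 2 h RT reaction; compounds tested as titrations in qHTS with 15 min preincubation.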
# % is scaled to controls: 0 for no effect and ±100 for the full control effect; potency is read from the fitted curve at half-maximal effect; tags tell the direction and shape of the fitted curve.
# Chain of UniProt Q96KQ7 (Q96KQ7 whole entry, looked up): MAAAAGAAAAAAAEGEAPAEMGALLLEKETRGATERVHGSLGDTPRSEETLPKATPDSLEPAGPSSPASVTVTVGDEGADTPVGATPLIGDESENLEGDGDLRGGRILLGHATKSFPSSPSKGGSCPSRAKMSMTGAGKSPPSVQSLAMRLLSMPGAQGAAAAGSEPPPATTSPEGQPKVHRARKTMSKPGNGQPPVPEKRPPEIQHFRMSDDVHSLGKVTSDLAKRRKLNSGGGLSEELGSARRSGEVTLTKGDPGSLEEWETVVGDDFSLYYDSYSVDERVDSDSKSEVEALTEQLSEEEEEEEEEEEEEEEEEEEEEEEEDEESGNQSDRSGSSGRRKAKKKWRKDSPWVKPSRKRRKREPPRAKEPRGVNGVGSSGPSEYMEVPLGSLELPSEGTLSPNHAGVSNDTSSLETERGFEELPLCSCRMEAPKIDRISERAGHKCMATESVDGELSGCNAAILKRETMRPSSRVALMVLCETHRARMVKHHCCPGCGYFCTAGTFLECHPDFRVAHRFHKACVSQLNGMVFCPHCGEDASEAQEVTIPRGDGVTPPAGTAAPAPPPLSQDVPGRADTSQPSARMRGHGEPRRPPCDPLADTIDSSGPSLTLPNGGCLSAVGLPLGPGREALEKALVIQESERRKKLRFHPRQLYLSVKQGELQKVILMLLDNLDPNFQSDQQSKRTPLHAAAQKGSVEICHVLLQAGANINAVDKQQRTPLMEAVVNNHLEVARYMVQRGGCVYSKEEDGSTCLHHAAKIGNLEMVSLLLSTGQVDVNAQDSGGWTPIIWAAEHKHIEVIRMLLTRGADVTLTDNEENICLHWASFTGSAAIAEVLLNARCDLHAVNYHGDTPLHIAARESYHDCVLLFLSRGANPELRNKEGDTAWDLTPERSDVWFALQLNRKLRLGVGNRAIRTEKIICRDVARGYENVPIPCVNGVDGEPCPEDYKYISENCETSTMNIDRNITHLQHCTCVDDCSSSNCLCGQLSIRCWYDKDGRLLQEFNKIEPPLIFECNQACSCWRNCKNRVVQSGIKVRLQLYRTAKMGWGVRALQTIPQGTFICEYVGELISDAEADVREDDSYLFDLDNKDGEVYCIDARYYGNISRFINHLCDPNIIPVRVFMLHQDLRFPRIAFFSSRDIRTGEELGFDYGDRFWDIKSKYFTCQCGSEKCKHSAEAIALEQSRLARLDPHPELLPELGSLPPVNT
SMILES,Potency,"activity, negative = inhibition"
COc1cc2cc(C(c3nnnn3C(C)(C)C)N3CCC(C)CC3)c(=O)[nH]c2cc1OC (stereo not given),"inconclusive: 56.2 µM [inhibitor, partial curve]",–
CCOc1ccc(CNC(=O)C2CCCN(c3nn4cc(-c5ccc(OC)cc5)nc4s3)C2)cc1 (stereo not given),–,inactive: -42.5%
COc1ccc(Cl)cc1NC(=O)COC(=O)/C=C/c1c(C)nn(C2CCS(=O)(=O)C2)c1Cl (stereo not given),–,inactive: 0.844% [at 102 µM]
C/C(=N\Nc1ccccc1)c1c(O)cc(C)oc1=O,active: 2.51 µM,–
O=C(O)c1ccc2c(c1)C(=O)N(c1cccc3ccccc13)C2=O,–,inactive: -9.91% [at 102 µM]
Cc1cccc(OCCn2c(=S)[nH]c3ccccc32)c1,active: 1.58 µM,–
CCOc1ccc(CN2CCNC(=O)C2CC(=O)NCCc2cnccn2)cc1 (stereo not given),"inconclusive: 79.4 µM [inhibitor, single point]",–
CCCCn1c(SCC(=O)c2cc(OC)ccc2OC)nc2cc(S(N)(=O)=O)ccc21,"inconclusive: 3.16 µM [inhibitor, full curve, poor fit]",–
Oc1ccc(OCc2ccccc2)cc1,–,inactive: 2.34% [at 21.5 µM]
CCC(=O)Nc1cccc(C(=O)OCc2cccc([N+](=O)[O-])c2)c1,–,inactive: 22.2% [at 12.7 µM]
Cc1ccc(C(=O)CSc2nc3cc(C(=O)NC4CCCC4)ccc3c(=O)n2CC2CCCO2)c(C)c1 (stereo not given),–,inactive: 6.09%
c1ccc(CSc2ncn[nH]2)nc1,active: 44.7 µM,–
COc1cc(C2c3c([nH]c(=O)[nH]c3=O)Nc3ccc4ccccc4c32)cc(OC)c1OC (stereo not given),"inconclusive: 44.7 µM [inhibitor, partial curve, poor fit]",–
CCOc1ccc(NC(=O)C(C)NS(=O)(=O)c2ccc(NC(C)=O)cc2)cc1 (stereo not given),"inconclusive: 50.1 µM [inhibitor, partial curve, poor fit]",–
CN(C(=S)NC(=O)c1ccc(F)cc1)C1CCCCC1,–,inactive: 15.8% [at 102 µM]
Cc1cccc(OCC(=O)NCC(=O)N/N=C/c2cc(Br)ccc2OCc2ccccc2)c1,"inconclusive: 6.31 µM [inhibitor, single point]",–
Cc1ccccc1Nc1nc(N2CCOCC2)nc(N2CCOCC2)n1,"inconclusive: 89.1 µM [inhibitor, single point]",–
COc1ccccc1C(CNC(=O)C1CCN(C(=O)Nc2ccccc2)CC1)N1CCCC1 (stereo not given),"inconclusive: 89.1 µM [inhibitor, partial curve, poor fit]",–
COC(=O)Cc1coc2cc(OC)ccc12,–,inactive: -7.27% [at 2.33 µM]
CCOc1ccc(S(=O)(=O)Nc2cccc(C(=O)NCC(c3ccc(OC)cc3)N3CCOCC3)c2)cc1 (stereo not given),"inconclusive: 44.7 µM [inhibitor, partial curve]",–
